# According to the supplement of paper PMC3334620:
# The full ranking holds about 33,000 sequences; the median of “E-score (-0.5 to 0.5)” is about -0.012, and the highest 2% start at about 0.27. The list shows a part of the results.
# Target: T1, Vhr1 (UniProt P40522)
# T1 sequence: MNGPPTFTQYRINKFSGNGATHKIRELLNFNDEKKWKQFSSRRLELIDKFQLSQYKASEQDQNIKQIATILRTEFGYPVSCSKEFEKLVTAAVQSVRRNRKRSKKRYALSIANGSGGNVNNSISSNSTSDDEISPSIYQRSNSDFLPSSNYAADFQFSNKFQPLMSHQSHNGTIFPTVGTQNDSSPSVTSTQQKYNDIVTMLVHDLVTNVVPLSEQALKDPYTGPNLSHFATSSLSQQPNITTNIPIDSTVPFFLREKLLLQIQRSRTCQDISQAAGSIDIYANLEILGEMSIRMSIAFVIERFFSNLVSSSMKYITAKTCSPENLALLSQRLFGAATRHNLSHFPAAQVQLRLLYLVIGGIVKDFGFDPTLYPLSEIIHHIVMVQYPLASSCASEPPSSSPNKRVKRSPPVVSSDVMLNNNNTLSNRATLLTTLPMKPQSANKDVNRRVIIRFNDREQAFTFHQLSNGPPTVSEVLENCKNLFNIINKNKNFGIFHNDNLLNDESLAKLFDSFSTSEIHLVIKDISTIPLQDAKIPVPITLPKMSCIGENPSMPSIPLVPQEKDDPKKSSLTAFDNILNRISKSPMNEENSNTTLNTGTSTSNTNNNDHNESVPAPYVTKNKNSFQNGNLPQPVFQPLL
# Assay: PBM E-score (8-mer binding enrichment) (E-score (-0.5 to 0.5)); higher = stronger / more preferred TF binding; most listed sequences are background and not binding sites
# Conditions: protein concentration: 200 nM; construct: GST-full length
# In short: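 Yeast transcription factors, full-length or as DNA-binding domains, were expressed with a GST tag using PURExpress in vitro transcription/translation. At about 100-200 nM they were applied to universal all-10-mer Agilent arrays, double-stranded by primer extension on fresh or once-stripped slides. Fluorescent anti-GST detected bound protein, and masliner normalised the scans. E-scores for ungapped eight-base words, pooled with reverse complements, came from the Universal PBM Analysis Suite.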
row,Sequence,PBM E-score
1,CCCCCCGG,-0.021
2,GGTTCATA,0.1
3,CGATAAGC,-0.191
4,TGGAGGAA,-0.0594
5,AGATAGGG,-0.26
6,AGACCAAG,0.0449
7,GAATGCAA,-0.109
8,ACCGGTAC,-0.222
9,AAGTCATC,0.323
10,AGAAGGCC,-0.152
11,AAGAACGG,-0.00677
12,CTGCCAAA,0.0428
13,CGATTCTA,-0.137
14,AAAAGTCC,-0.265
15,AGTCCACT,-0.158
16,AAGAAGGT,-0.0924
17,CTACCGCC,-0.055
18,AACCTTAT,-0.0319
19,ACTCCGGA,0.188
20,CCAGTCAA,0.045
21,AACGGATA,0.0678
22,ACGGGCAC,-0.0445

row,Sequence,PBM E-score
1,CGCGAGGC,0.138
2,AATAGATC,0.0118
3,CCTTAGCC,-0.076
4,TCTAAAGA,0.0488
5,ATGCGAAT,0.186
6,AATAATGA,0.0266
7,GAAAATGA,-0.0818
8,AACGAGTA,0.134
9,CGTGGATA,-0.0329
10,ATCCAGTC,0.187
11,AAGCGGTC,0.0473
12,ACGTTCAG,-0.171
13,GCGGTACA,0.0387
14,AGCACACT,0.122
15,AGACTACC,0.0276
16,ATCAAACC,0.0981
17,GCATAGCC,-0.171
18,ACAACCCC,-0.061
19,GATGGTAC,0.0306
20,ATCAGATC,-0.0603
21,CAATTGTA,-0.0887
22,ACGATTAG,0.045

row,Sequence,PBM E-score
1,GTGTTTAA,-0.0256
2,GCAAAAGA,-0.0677
3,ATAGCCCG,-0.124
4,AGGGACTG,0.0457
5,ATACGCGG,-0.0262
6,CTTCGCTC,-0.0922
7,CTGCCGTC,0.0236
8,GAAATCCA,-0.0854
9,GGTTAATA,0.103
10,CAGCTGGG,0.134
11,CTAACGAA,-0.14
12,GGGTGAAC,0.0885
13,CTGTTCGA,-0.156
14,AAGTGATT,0.192
15,ATTCCTCC,0.00734
16,CTGTTGCC,-0.169
17,GACTTTTA,-0.265
18,ATAGACCG,-0.0898
19,CATCTGCC,-0.0601
20,TAATCAGA,0.146
21,CATTTCAC,-0.115
22,CTCCGCAC,-0.00478

row,Sequence,PBM E-score
1,GCCCTCAC,0.0633
2,CCCCTCCA,0.174
3,AGATTCCC,-0.0261
4,ACGATGGG,0.0176
5,CTATAACA,-0.0876
6,CCTGGGGC,-0.256
7,AACTGCTC,-0.0909
8,CGCTCTCC,-0.168
9,ACATGAAT,0.228
10,CGTGCAAC,-0.0564
11,GTCTTAGA,-0.0647
12,AATACAGG,0.111
13,GCTGCTAA,-0.0776
14,AGGCTTAT,-0.0879
15,ATAACGGA,0.0722
16,ATAGCCTA,0.11
17,CCATTATC,0.126
18,CCAGTCCG,-0.0813
19,AACAGATC,-0.0905
20,GTTGGCTA,0.0235
